The source of these data is PubChem BioAssay (NCATS).

“And” between values parts separate entries of the source, which are not always exact repeats. Equal entries are not always repeated. The list shows a part of the results. These are further read-outs of the screen, such as a control signal, another cell line or another target. No call is given for them. Compounds called inactive in the main read-out are mostly missing here. Bridge positions count the residues as written; N and C are the ends. Square brackets hold non-standard residues; d marks the D form. Peptide text beside a SMILES is read from it. * marks the point of attachment. ξ: configuration not given here. ξDab(CH2SO3H) = NC(CCNCS(=O)(=O)O)C(=O)O; Heptanoyl(6-Me) = CC(C)CCCCC(=O)*; Dab = NCC[CH](N)C(=O)O

The test can be described thus: qHTS Assay for Lipid Storage Modulators (AID 1519). As to conditions: Drosophila S3 cells, BODIPY lipid droplet/cell ratio, laser cytometry; measured here: lipid channel max response; cells loaded with oleic acid. The method, boiled down:
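Cells seeded at 5,000 per well were treated with compounds over a concentration series and loaded with oleic acid (400 uM, as added). Lipid droplet fluorescence (488 nm excitation, 500-530 nm channel) was read by laser-scanning cytometry and normalized to 20 uM Triacsin C.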
Take `Cc1noc(C)c1C(=O)N1CCC2(CCCN(C(c3ccccc3)c3ccccc3)C2)CC1`: the max response was found to be 12.2%.
Turning to `O=c1cnc2cnc(N3CCNCC3)nc2n1CCc1ccccc1`, the max response was 49.5%.
Next, `COc1cccc(-c2nc(NCCNC(C)=O)c3ccccc3n2)c1`: 32.8%.
Next, `O=C(Cc1ccccc1)Nc1nc2ccc(Cl)cc2c2nc(-c3ccco3)nn12`: 87.9%; `COc1ccccc1-c1cncnc1Nc1ccccc1`: 46.3%.
With `CCCCCCCCCCCCCCCC(=O)NCCO`, the max response is -42.5% and 56.4%.
Next, `C=C1C(=O)O[C@@H]2C3OC3(C)CC/C=C(\C)CC[C@@H]12` (stereo not given in full): 76.9%.
Next, `COC(=O)[C@H]1[C@H]2CC3c4[nH]c5ccccc5c4CCN3C[C@@H]2CC[C@@H]1O` (stereo not given in full): 38.8%; `CN(C)c1ncc2nc(CCc3ccccc3)c(=O)n(Cc3ccc(F)cc3)c2n1`: 23%.
As for `C[C@@]12C(=O)OC(=O)[C@@]1(C)[C@@H]1CC[C@@H]2O1`, the figure is 92.3%; as for `O=c1c(-c2ccc(F)cc2)nc2cnc(Nc3ccccc3)nc2n1C1CC1`, 36.8%; as for `CN(C)c1ncc2nc(-c3ccc(Cl)cc3)c(=O)n(CCC#N)c2n1`, 52.9%.
For `COc1cc(OC)c2cc(-c3ccncc3)cnc2c1`, the max response came out at 125%.
As for `N#Cc1cccc(-c2ccc3ncnc(N4CCNCC4)c3c2)c1`, the figure is 39.6%; as for `CCNc1ncc2nc(-c3ccc(Cl)cc3)c(=O)n(C)c2n1`, 45.4%; as for `C[N+](C)(C)CCOC(N)=O`, 47.7% and 7.52%.
Next, `COc1ncc2ncc(=O)n(CCc3ccccc3)c2n1`: 23.1%; `COc1ccc(Oc2ncc3nc(C)c(=O)n(-c4ccc(OC)cc4)c3n2)cc1`: 4.52%; `c1ccc(Nc2ncncc2-c2ccoc2)cc1`: 20.1%.
`Cc1ccccc1-c1ccc2ncnc(N3CCOCC3)c2c1`: the max response is 5.98%.
With `COCCn1c(=O)cnc2cnc(N3CCOCC3)nc21`, the max response turned out to be 46.2%.
On to `c1nc(NCCN2CCOCC2)c2cc(-c3ccoc3)ccc2n1`, for which the max response was determined as 42.5%.
For the molecule `O=C(/C=C/c1ccc(O)cc1)c1c(O)cc(O)cc1O`, the max response came out at 102%.
Next, `COc1cc(OC)c2c(=O)c(-c3ccccc3)coc2c1`: 33.9%; `COc1ccc(C(=O)N2CCC3(CCCN(c4ncccn4)C3)CC2)cc1`: 23.9%; `COc1ccccc1-c1cncnc1NCc1cccs1`: 36.5%.
Next, `COc1ccc(C(=O)N2CCC[C@@]3(CCN(Cc4nccs4)C3)C2)cc1`: 20.1%; `Cc1cnc(CNc2ncnc3ccc(-c4cccc(NS(C)(=O)=O)c4)cc23)cn1`: 38.1%.
Next, `COc1cccc(Nc2ncc3nc(CCc4ccccc4)c(=O)n(C4CC4)c3n2)c1`: -6.32%.
As to `Clc1ccccc1-c1nc(NCc2cccnc2)c2ccccc2n1`, the max response was 34.6%.
Consider `CCC(C)C1NC(=O)C(CCNCS(=O)(=O)O)NC(=O)C(NC(=O)C(CCNCS(=O)(=O)O)NC(=O)C(NC(=O)C(CCNCS(=O)(=O)O)NC(=O)CCCCC(C)C)C(C)O)CCNC(=O)C(C(C)O)NC(=O)C(CCNCS(=O)(=O)O)NC(=O)C(CCNCS(=O)(=O)O)NC(=O)C(C(C)CC)NC1=O` (stereo not given) ({Heptanoyl(6-Me)}-[ξDab(CH2SO3H)]T[ξDab(CH2SO3H)][Dab][ξDab(CH2SO3H)]II[ξDab(CH2SO3H)][ξDab(CH2SO3H)]T; lactam 4-C; configuration not given here), for which the max response worked out at 79.2%.
As for `COc1cc(N)c(Cl)cc1C(=O)N[C@H]1CCN(CCCOc2ccc(F)cc2)C[C@@H]1OC`, the figure is 143%.
As for `N#Cc1cccc(-c2nc(NCc3cccs3)c3ccccc3n2)c1`, the figure is 21.6%.
Next, `CN=C1N[C@H](c2ccccc2)N(c2ccccc2)S1`: -86.1%; `COc1ncc2nc(CCc3ccccc3)c(=O)n(C)c2n1`: 33%.
`COc1ccccc1CNc1cc(-c2ccccc2OC)ncn1`: the max response is -1.29%.
As for `CCCCCCCCCCCCCCCC(=O)O[C@H](CC(=O)O)C[N+](C)(C)C`, the figure is 49.2%; as for `c1cncc(CNc2ccnc(-c3ccc4c(c3)OCO4)n2)c1`, 30.3%.
Next, `CN1CCN(c2nc(-c3cccnc3)nc3ccccc23)CC1`: 16.2%.
Turning to `CNc1nc(-c2cccc(C#N)c2)nc2ccccc12`, the max response was found to be 36.6%.
